Assay results from PubChem BioAssay AID1259407 (Chemical Carcinogenesis Research Information System (CCRIS), 2018).
“Also recorded” adds a separate entry of the source. A number of entries come with more than one value. They are shown here; other results are not. The rule behind the calls is not given here. There may be further records. The records of an entry differ for a reason that is not stated; they may come from other doses, times, organisms or constructs than stated. What stands in brackets tells the records apart. A, B and so on number the origins entry by entry. Counts like (3×) say how often a value occurs here.

Tested on: CCRIS mutagenicity, Ames/micronucleus/aberration tests
Assay: CCRIS mutagenicity studies
[1] = End Point: IN VITRO CHROMOSOMAL ABERRATIONS, Test System: CHL CELLS, Metabolic Activation: NONE
[2] = End Point: In vitro chromosomal aberrations, Test System: Chinese hamster lung (CHL/IU) cells, Metabolic Activation: None
[3] = Test System: AMES SALMONELLA TYPHIMURIUM, Strain/Indicator: TA98, Metabolic Activation: NONE, Method: PREINCUBATION
[4] = Test System: MOUSE LYMPHOMA, Strain/Indicator: L5178Y (TK+/TK-), Metabolic Activation: NONE, Method: SUSPENSION/PLATE

Question: For `O=c1[nH]cc(F)c(=O)[nH]1`, which mutagenic call (End Point: IN VITRO MICRONUCLEUS, Test System: V79 CELLS, Metabolic Activation: NONE) is on record?
Answer: The mutagenic call was “inactive; negative and active; positive (2×)”.

Question: Which mutagenic call (Test System: AMES SALMONELLA TYPHIMURIUM, Strain/Indicator: TA100, Metabolic Activation: HAMSTER, LIVER, S-9, AROCLOR 1254 (30%), Method: PREINCUBATION) does the source give for `CCCCOc1ccc(C=Nc2ccc(CC)cc2)cc1` here?
Answer: The mutagenic call was “active; positive [10 to 1000 µg/plate] and inactive; negative [100 to 10000 µg/plate]”.

Question: Which mutagenic call [1] does the source give for `C=C(C)CCl` here?
Answer: Its mutagenic call is “inactive; negative; authors report equivocal results for ploidy changes at highest dose; also recorded: active; positive; authors report equivocal results for ploidy changes at highest dose fo”.

Question: What about the mutagenic call (End Point: IN VITRO CHROMOSOMAL ABERRATIONS, Test System: CHO CELLS, Metabolic Activation: NONE) of the same compound?
Answer: Its mutagenic call is “active; positive; weak response and inactive; negative and active; positive”.

Question: And the mutagenic call (End Point: IN VITRO CHROMOSOMAL ABERRATIONS, Test System: CHO CELLS, Metabolic Activation: RAT, LIVER, S-9, AROCLOR 1254)?
Answer: Its mutagenic call is “inactive; negative; also recorded: active; positive; weak response; all aberrations observed as pulverized chromosomes”.

Question: Which mutagenic call [2] does the source give for `C=CCO` here?
Answer: The mutagenic call was “inactive; negative. weak ploidy effects showed no dose response; also recorded: inactive; negative. weak structural changes response not dose related; also recorded: inactive; negative”.

Question: With `COP(=O)(OC)C(O)C(Cl)(Cl)Cl` (stereo not given) as the compound, how does the mutagenic call (Test System: AMES SALMONELLA TYPHIMURIUM, Strain/Indicator: TA100, Metabolic Activation: NONE, Method: FLUCTUATION TEST) read?
Answer: The mutagenic call was “inactive; negative and active; positive”.

Question: With `C` as the compound, how does the mutagenic call (End Point: In vitro chromosomal aberrations, Test System: Chinese hamster V79 lung fibroblast cells, Metabolic Activation: None) read?
Answer: Its mutagenic call is “inactive; negative. positive response at 10 ug/ml was considered not relevant by authors b; also recorded: inactive; negative. material tested was baytubes, multi-walled carbon-nanotubes”.

Question: `Nc1ccc2nc3ccccn3c2n1` was tested. Which mutagenic call (Test System: CHINESE HAMSTER V-79, Strain/Indicator: V-79/6-THIOGUANINE, Metabolic Activation: HAMSTER, PANCREAS DUCT, EPITHELIAL CELLS) did it give?
Answer: The mutagenic call was “active; positive and inactive; negative”.

Question: For `CC(=O)OCCN(CCC#N)c1ccc(N=Nc2ccc([N+](=O)[O-])cc2)cc1`, which mutagenic call [1] is on record?
Answer: The mutagenic call was “inactive; negative and active; positive (structural changes)”.

Question: Which results are given for `Nc1ccccc1C(=O)OC/C=C/c1ccccc1`?
Answer: mutagenic call (Test System: E. COLI, Strain/Indicator: WP2 UVRA, Metabolic Activation: HAMSTER, LIVER, S-9, Method: STANDARD PLATE): inactive; negative and active; positive (2×); mutagenic call (Test System: E. COLI, Strain/Indicator: WP2 UVRA, Metabolic Activation: MOUSE, LIVER, S-9, AROCLOR 1254, Method: STANDARD PLATE): inactive; negative and active; positive; mutagenic call (Test System: E. COLI, Strain/Indicator: WP2 UVRA, Metabolic Activation: MOUSE, LIVER, S-9, Method: STANDARD PLATE): inactive; negative and active; positive (2×); mutagenic call (Test System: E. COLI, Strain/Indicator: WP2 UVRA, Metabolic Activation: RAT, LIVER, S-9, AROCLOR 1254, Method: STANDARD PLATE): inactive; negative and active; positive; mutagenic call (Test System: E. COLI, Strain/Indicator: WP2 UVRA, Metabolic Activation: RAT, LIVER, S-9, Method: STANDARD PLATE): inactive; negative and active; positive

Question: With `O=C(O)/C(Cl)=C(/C(=O)O)C(Cl)Cl` as the compound, how does the mutagenic call (Test System: AMES SALMONELLA TYPHIMURIUM, Strain/Indicator: TA100, Metabolic Activation: NONE, Method: STANDARD PLATE) read?
Answer: Its mutagenic call is “active; positive [study A] and inactive; negative [study B]”.

Question: What does the source list for `Oc1ccc(O)c(O)c1`?
Answer: mutagenic call (Test System: AMES SALMONELLA TYPHIMURIUM, Strain/Indicator: TA97, Metabolic Activation: NONE, Method: PREINCUBATION): inactive; negative and active; positive; mutagenic call [3]: inactive; negative and active; positive

Question: `O=C1c2cccc(O)c2C(=O)c2cccc(O)c21` was tested. Which mutagenic call (Test System: AMES SALMONELLA TYPHIMURIUM, Strain/Indicator: TA1538, Metabolic Activation: RAT, LIVER, S-9, AROCLOR 1254, Method: STANDARD PLATE) did it give?
Answer: Its mutagenic call is “active; positive and inactive; negative”.

Question: For `Nc1c(Oc2ccccc2)cc(O)c2c1C(=O)c1ccccc1C2=O`, which mutagenic call [4] is on record?
Answer: The mutagenic call was “inactive; positive. reevaluation of results: negative; also recorded: inactive; negative. reevaluation of results: negative”.

Question: `Cc1cc(-c2cc(C)c(N)c(C)c2)cc(C)c1N` was tested. Which mutagenic call [4] did it give?
Answer: Its mutagenic call is “active; positive (2×) and inactive; negative”.

Question: `FC(F)(F)c1ccc(Cl)c(Cl)c1` was tested. Which mutagenic call (Test System: Ames Salmonella typhimurium, Strain/Indicator: TA98, Metabolic Activation: None, Method: Preincubation) did it give?
Answer: Its mutagenic call is “inactive; negative; also recorded: inactive; negative (2 experimental trials)”.

Question: And the mutagenic call (Test System: Ames Salmonella typhimurium, Strain/Indicator: TA98, Metabolic Activation: Rat, Liver, S9, Sodium phenobarbital and 5,6-benzoflavone, Method: Preincubation)?
Answer: Its mutagenic call is “inactive; negative; also recorded: inactive; negative (2 experimental trials)”.

Question: And the mutagenic call (Test System: Ames Salmonella typhimurium, Strain/Indicator: TA100, Metabolic Activation: None, Method: Preincubation)?
Answer: Its mutagenic call is “inactive; negative; also recorded: inactive; negative (2 experimental trials)”.

Question: What about the mutagenic call (Test System: Ames Salmonella typhimurium, Strain/Indicator: TA100, Metabolic Activation: Rat, Liver, S9, Sodium phenobarbital and 5,6-benzoflavone, Method: Preincubation) of the same compound?
Answer: Its mutagenic call is “inactive; negative; also recorded: inactive; negative (2 experimental trials)”.

Question: And the mutagenic call (Test System: Ames Salmonella typhimurium, Strain/Indicator: TA1535, Metabolic Activation: None, Method: Preincubation)?
Answer: The mutagenic call was “inactive; negative; also recorded: inactive; negative (2 experimental trials)”.

Question: What about the mutagenic call (Test System: Ames Salmonella typhimurium, Strain/Indicator: TA1535, Metabolic Activation: Rat, Liver, S9, Sodium phenobarbital and 5,6-benzoflavone, Method: Preincubation) of the same compound?
Answer: Its mutagenic call is “inactive; negative; also recorded: inactive; negative (2 experimental trials)”.

Question: And the mutagenic call (Test System: Ames Salmonella typhimurium, Strain/Indicator: TA1537, Metabolic Activation: None, Method: Preincubation)?
Answer: Its mutagenic call is “inactive; negative; also recorded: inactive; negative (2 experimental trials)”.

Question: And the mutagenic call (Test System: Ames Salmonella typhimurium, Strain/Indicator: TA1537, Metabolic Activation: Rat, Liver, S9, Sodium phenobarbital and 5,6-benzoflavone, Method: Preincubation)?
Answer: Its mutagenic call is “inactive; negative; also recorded: inactive; negative (2 experimental trials)”.

Question: With `c1ccc2cc3ccccc3cc2c1` as the compound, how does the mutagenic call [2] read?
Answer: Its mutagenic call is “active; positive (structural changes and ploidy). precipitation in the culture medium at; also recorded: inactive; negative. precipitation in the culture medium at all doses (2×)”.

Question: And the mutagenic call (Test System: AMES SALMONELLA TYPHIMURIUM, Strain/Indicator: TA100, Metabolic Activation: NONE, Method: PREINCUBATION)?
Answer: The mutagenic call was “inactive; negative [study A] and active; positive [study B]”.

Question: And the mutagenic call (Test System: Ames Salmonella typhimurium, Strain/Indicator: TA1535, Metabolic Activation: Rat, Liver, S9, Phenobarbital and 5,6-benzoflavone (10%), Method: Preincubation)?
Answer: The mutagenic call was “inactive; negative. precipitate at three highest doses; also recorded: inactive; negative. precipitate at 313, 625 and 1,250 mg/ml; also recorded: inactive; negative. precipitation at 3 highest doses”.

Question: And the mutagenic call (Test System: Ames Salmonella typhimurium, Strain/Indicator: TA1535, Metabolic Activation: Rat, Liver, S9, Phenobarbital and 5,6-benzoflavone (30%), Method: Preincubation)?
Answer: Its mutagenic call is “inactive; negative. precipitate at three highest doses; also recorded: inactive; negative. precipitate at 313, 625 and 1,250 mg/ml; also recorded: inactive; negative. precipitation at 3 highest doses”.

Question: For `C=CC#N`, which mutagenic call [1] is on record?
Answer: Its mutagenic call is “active; positive (structural changes) (2×); also recorded: active; positive (structural changes); authors report equivocal results for ploidy chang”.

Question: And the mutagenic call (Test System: MOUSE LYMPHOMA, Strain/Indicator: L5178Y (TK+/TK-), Metabolic Activation: RAT, LIVER, S-9, AROCLOR 1254, Method: SUSPENSION/PLATE)?
Answer: Its mutagenic call is “active; positive [study A]; also recorded: active; positive [study B]; also recorded: active; positive. reevaluation of results: positive [study C]”.

Question: Which mutagenic call [1] does the source give for `O=C(ON=C1C=CC(=NOC(=O)c2ccccc2)C=C1)c1ccccc1` here?
Answer: Its mutagenic call is “active; positive (structural changes); also recorded: inactive; negative; also recorded: active; positive (structural changes); authors report equivocal results for ploidy at hi”.

Question: `O=[N+]([O-])c1ccccc1CCl` was tested. Which mutagenic call [3] did it give?
Answer: Its mutagenic call is “active; positive [study A] and inactive; negative [study B] and inactive; negative [study C]”.

Question: Which mutagenic call (End Point: IN VITRO CHROMOSOMAL ABERRATIONS, Test System: CHINESE HAMSTER OVARY CELLS, Metabolic Activation: NONE) does the source give for `ClC(Cl)(Cl)C(Cl)(Cl)Cl` here?
Answer: The mutagenic call was “active; positive and inactive; negative”.

Question: How did the mutagenic call (Test System: CHINESE HAMSTER V-79, Strain/Indicator: V-79/6-THIOGUANINE, Metabolic Activation: RAT, KIDNEY, S-9, Method: STANDARD PLATE) turn out when `CC(C)(S)[C@@H](N)C(=O)O` was run?
Answer: The mutagenic call was “inactive; negative and active; positive”.

Question: How did the mutagenic call [4] turn out when `C[C@H](CCC(=O)O)[C@H]1CC[C@H]2[C@@H]3CC[C@@H]4C[C@H](O)CC[C@]4(C)[C@H]3CC[C@]12C` was run?
Answer: Its mutagenic call is “inactive; negative [study A] and inactive; negative [study B] and active; positive [study B]”.

Question: With `O=[N+]([O-])c1cccc2c([N+](=O)[O-])cccc12` as the compound, how does the mutagenic call [1] read?
Answer: The mutagenic call was “active; positive (ploidy changes); also recorded: inactive; negative; authors report equivocal results for ploidy changes at 0.063 and 0.13”.

Question: For `CC(Br)CBr` (stereo not given), which mutagenic call (Test System: AMES SALMONELLA TYPHIMURIUM, Strain/Indicator: TA1535, Metabolic Activation: RAT LIVER S-9, PHENOBARBITAL AND BETA-NAPHTHOFLAVONE, Method: PREINCUBATION) is on record?
Answer: Its mutagenic call is “inactive; negative and active; positive”.

Question: With `ClCCOCCCl` as the compound, how does the mutagenic call (Test System: AMES SALMONELLA TYPHIMURIUM, Strain/Indicator: TA1535, Metabolic Activation: HAMSTER, LIVER, S-9, PHENOBARBITAL AND BETA-NAPHTHOFLAVONE, Method: PREINCUBATION) read?
Answer: Its mutagenic call is “inactive; negative and active; positive (2×)”.

Question: What about the mutagenic call (Test System: AMES SALMONELLA TYPHIMURIUM, Strain/Indicator: TA1535, Metabolic Activation: RAT, LIVER, S-9, PHENOBARBITAL AND BETA-NAPHTHOFLAVONE, Method: PREINCUBATION) of the same compound?
Answer: Its mutagenic call is “inactive; negative and active; positive (2×)”.

Question: What about the mutagenic call (Test System: E. COLI, Strain/Indicator: WP2UVRA, Metabolic Activation: HAMSTER, LIVER, S-9, PHENOBARBITAL AND BETA-NAPHTHOFLAVONE, Method: PREINCUBATION) of the same compound?
Answer: Its mutagenic call is “active; positive (2×) and inactive; negative”.
